63 sequences from the supplement of paper PMC10681739 can be followed below.

The full ranking holds about 4,100 sequences; the median of “arbitrary fluorescence units” is about 780, and the highest 2% start at about 22,000. The list shows a part of the results.

In this assay the target is T1, ETS1 (UniProt P14921).
T1 sequence: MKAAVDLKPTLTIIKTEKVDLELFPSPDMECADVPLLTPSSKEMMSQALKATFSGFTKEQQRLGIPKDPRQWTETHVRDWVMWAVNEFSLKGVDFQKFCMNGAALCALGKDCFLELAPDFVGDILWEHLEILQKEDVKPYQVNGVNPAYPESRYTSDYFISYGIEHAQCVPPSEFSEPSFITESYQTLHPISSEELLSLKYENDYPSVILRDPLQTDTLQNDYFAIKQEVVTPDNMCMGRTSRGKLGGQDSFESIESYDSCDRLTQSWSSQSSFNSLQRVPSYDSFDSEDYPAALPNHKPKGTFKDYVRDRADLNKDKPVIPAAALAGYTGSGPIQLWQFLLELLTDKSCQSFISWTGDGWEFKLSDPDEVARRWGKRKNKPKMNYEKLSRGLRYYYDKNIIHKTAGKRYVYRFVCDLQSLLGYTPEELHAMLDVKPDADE
As to the kind of experiment: ETS1 binding intensity (PBM fluorescence), ETS1 alone (arbitrary fluorescence units); higher = stronger binding. To be noted: ETS1 concentration 1 nM; RUNX1 concentration 0 nM. In short, it runs like this: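 Double-stranded Agilent 4 × 180k arrays held 36-bp genomic probes whose RUNX1 partner site was mutated, and these were incubated with 1 nM full-length recombinant human ETS1 in the absence of RUNX1 under standard PBM protocols. Bound protein was labelled with anti-ETS1 antibody (Cell Signaling Technology 14069) plus an Alexa488-conjugated secondary and read on a GenePix 4400A, with four spots printed per sequence. Binding level is reported as raw spot fluorescence intensity summarised over replicate spots.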
Sequence CTCAGCGGAAGAGCGGGCCTCTGGGCCGAAGTGACC gave an ETS1 binding intensity of 1080.
As for GGCGTGGCGGAAGGCGCGCTGGGGCGCTGCTTTCTC, the figure is 494; as for GACCCAGATACGACACCTACCCTGCTTCCTTTTCTA, 612.
As for CGACGTCACTTCCGCTGGTTCAAGCACCGTGAGACT, the figure is 21400; as for GGCTGCGCCGGCTGGGGTGTTCCTCCGACTTCCGGA, 1590.
AATAAACAGGAAGGTCTCTTGGAGCTGTGCTCTTGG showed an ETS1 binding intensity of 938.
The sequence TCAGCCACTCGCGGAGGAGGAAGCGTTTTCGGCGCA had an ETS1 binding intensity of 374.
For ATGTTAACATCCTGCCATGAAAATCGCAAGAAGGGC, the ETS1 binding intensity is 10800.
As for CCTCCCGACCGGAAGCCCCGCCAGAGAGCGGGTTGT, the figure is 10300.
The sequence GCATGGCAGTTCTTGGCGTGCGAACCCCTTCCGCCC gave an ETS1 binding intensity of 482.
As for CGGACCCGCTGCGTTAACCCAGCCCCGGAAATAACG, the figure is 693; as for CAAATCACATGCCCACCTGGGGGACAGGAAGAGGAC, 475; as for GGGACAACCTCGGGCCTCGCTCCTCCCCGGACGGGG, 344.
For the sequence GACGCTTCGGTAGCGCTGCTCCTTCCGCCTCCGGCT, the ETS1 binding intensity is 649.
Turning to AGCACTTCCGTTTGGGCAGGGCTGAGGGCCGGAGGG, the ETS1 binding intensity is 16800.
As to CGGCCCCCGGGGTTGTTAGCGCTTCCGGGGTCGAAG, the ETS1 binding intensity worked out at 3120.
With TTACGTTAAGGAGGAAACTCTGTGATTAAACTGTAG the figure was 437; with ACAAAAAAATCACACACCCAACGGAAACCATAGAGA, 669; with TTTAAGGGCGGAAAGGCTTTAGCCGTAAAATGGCTT, 366.
AGACGGTTCCGGGGGACCGGCCGCGACTACGGCGGC: the ETS1 binding intensity amounted to 1460.
With GTGGGGCGGGCTTCCGGCGCTCCCACCGTGAGCCGA the figure was 8140.
GGTGGACCTGTGATTTGCAACACAGGAAGAGACTAT had an ETS1 binding intensity of 642.
As for TGCCCTGACTTCCTGGTCCTGTTGTCAAGGATGGGG, the figure is 6110; as for CCTTCTGGGAGCTGTAGTTCTGCAGGCGCGGAAGCC, 311.
Sequence CTTAAATGGGAAATGTAGGTGTCGTTAAGTCACAAA gave an ETS1 binding intensity of 414.
As for GGATTTTGGGGTAGCGAACCCCGGGGCCGGAAGCAG, the ETS1 binding intensity amounted to 1080.
In turn, TCTCCCTGCCCGCGAGTCAAAGCCACTTCCTTTTCC yielded an ETS1 binding intensity of 917.
As for CACCTGACTACAAGGCACACGAACATCCTTATCACA, the figure is 655; as for GCTGCAGCGGCGGCGAAGAGACAACTTCCGCCGGAG, 3340; as for CTGGGGCCTGACGCCCTACGCCTACACTTCCCAGAG, 378.
As for GGCTGTCTTCAGCGCAGACGGGAAGCTGCTCAGCAC, the figure is 382; as for TCTAAATCACTTCCTGTTACAGAAACTACAGGCCTG, 26900; as for CTATTCGGGAGGCGGGGACAGCGCTTCCGGACCAGG, 2120.
Sequence GCGCGGGAGGAAGCCCCCCAATAATTTCGGGGCTTC yielded an ETS1 binding intensity of 518.
On to AGCGCTGAGGGGAGGGGGAGCAAGGACCGGACGAGA, for which the ETS1 binding intensity was determined as 792.
With GCCGCTGGGTAGGCGGAAGTAGCCGCTGGCATGGCA the figure was 2800; with GTGCTAGGACACAGGAAGCGATACCAAAAAGAACAT, 3260; with GCGGGCGTGTGAGGGGGCGACGGCGTCCGGGAGGCT, 553.
As for CTTAGCACTTGTAGTCAGCCTGCTTCCGGCTGTGGC, the figure is 2100.
Sequence GACACTTCGGTAGCCTCACTATTTCCTGCTTTAGGA yielded an ETS1 binding intensity of 3610.
With CGGCGGCTGCAGGCTGAGCGGCGAGTTTCCGATTTA the figure was 299.
As for GCGTTTCCCCCTTGGGGTTATAGCAGCCACCTCCTC, the figure is 1650.
As for GGTTGGTTTGCCCACGCCAGTTCCGCCTTCGCCTGC, the figure is 627.
In turn, CAAGCCAACATCCTGACAGTTTAGAAACTACAGGAG displayed an ETS1 binding intensity of 2950.
As for TGTAGTTTGGAGGTTTGGGGGATGTGTTTGTTTTGT, the figure is 584; as for CGACTACGGCAGTCCGCGGAATTCTTGTATCCTGTC, 498.
The sequence CTCTGGGAGGCCGCCGCTTTCCACCGGAAAGAGGGT had an ETS1 binding intensity of 555.
As for TGTAGTCAGGTAGTTAGGCAGGATGTTTCTCACGGC, the figure is 688.
The sequence ATGTCTTTAATCACACTGAGCTTCCGGGCCCTGCAC yielded an ETS1 binding intensity of 1540.
For GGAAAGGCAGCAGTGGCAGAGGATGTGCTGGGGGAG, the ETS1 binding intensity amounted to 585.
Regarding TGTTGGACCCCAGGCAATTGCCTGTTCAGGAAGAGA, the ETS1 binding intensity amounted to 358.
With TCCTTAATGGTTCCGGCGGCAGGGACCCCAGCGACG the figure was 970; with ATGACTTCGAGGAAGTCTTCAGAAACTACAGGCTGA, 459.
As for GGCGCGAGTAAGCCCTGGGACCCTCATCCTGGGGAG, the figure is 350.
GACAACCCCATCCTGCGCTCGCCCGAGGTGTCTCGG registered an ETS1 binding intensity of 869.
As for TGAGAAGGCAGGATAAGTGACCCCATATTTATGCCA, the figure is 447.
As for CCGGGGTAAAGCACGACACGACTCCCTTCCGTGTGG, the figure is 336.
With CAGCCTAGTGGGAGTTGTAGTTTCCGCAGCTCTGAG the figure was 570; with GCCCGAGGTTCCGGTCCATGGACAGCGGGCGCCGAG, 7390.
Sequence CGGGCGCCTGCAGGCGGTGCTGCCGGATGCCCCGCC registered an ETS1 binding intensity of 455.
AAGGAACTGTCGTAAGAGAAGGAAGTGCTATCCACT had an ETS1 binding intensity of 528.
GAGCCCGCGGATGTCAGGTGTGCTCACATCTAAACA came in with an ETS1 binding intensity of 431.
In turn, CTTGGGGTCCCCTCGGGTGGTGGCAGGATGTAGGTA had an ETS1 binding intensity of 480.
